# According to the antibiotic and cytotoxicity screens of Wong et al. (2023):
# The other results are listed elsewhere or left out.
# Test system: HepG2
# Assay: cytotoxicity call (relative viability < 0.9)
# Details: 10 µM
row,Structure (SMILES),cytotoxicity call
1,CO[C@@H]1CN(C)C(=O)c2ccc(NC(=O)Nc3cccc(F)c3)cc2OC[C@H](C)N(C(=O)Nc2c(C)noc2C)C[C@H]1C,inactive
2,Nc1ccc(OCc2ccccc2)cc1,inactive
3,C[C@@H]1CCCCO[C@H](CN(C)C(=O)CCC(F)(F)F)[C@H](C)CN([C@@H](C)CO)C(=O)c2cc(NC(=O)NC3CCCCC3)ccc2O1,inactive
4,CC(C)NC(=O)Nc1ccc2c(c1)C(=O)N([C@H](C)CO)C[C@@H](C)[C@H](CN(C)Cc1ccc(C(F)(F)F)cc1)OCCCC[C@@H](C)O2,active
5,Cc1noc(C)c1NC(=O)N[C@H]1C=C[C@@H](CC(=O)NCCCN(C)C)O[C@@H]1CO,inactive
6,C[C@@H]1CN([C@@H](C)CO)S(=O)(=O)c2ccc(C#Cc3ccccc3)cc2O[C@@H]1CN(C)C(=O)CN(C)C,active
7,COc1ccc(S(=O)(=O)Nc2ccc3c(c2)C(=O)N([C@H](C)CO)C[C@@H](C)[C@H](CN(C)S(=O)(=O)c2ccc(C)cc2)O3)cc1,inactive
8,C[C@@H]1CCCCO[C@@H](CN(C)Cc2ccc(C(=O)O)cc2)[C@H](C)CN([C@@H](C)CO)C(=O)c2cc(NS(=O)(=O)c3ccc(Cl)cc3)ccc2O1,inactive
9,C[C@H](CO)N1C[C@H](C)[C@@H](CN(C)C(=O)NC2CCCCC2)OCCCC[C@H](C)Oc2ccc(NC(=O)Nc3ccc(C(F)(F)F)cc3)cc2C1=O,inactive
10,O=C(C[C@@H]1CC[C@H]2[C@@H](COC[C@H](O)CN2S(=O)(=O)c2cccc(F)c2)O1)NCc1ccncn1,inactive
11,O=C(Nc1ccc2c(c1)[C@@H]1C[C@@H](CC(=O)N3CCc4ccccc4C3)O[C@@H](CO)[C@@H]1O2)C1CCOCC1,inactive
12,Cc1nc2n(c(=O)c1CCN1CCC(c3noc4cc(F)ccc34)CC1)CCCC2O (stereo not given),inactive
13,C[C@H]1CN([C@@H](C)CO)C(=O)Cc2cc(NS(=O)(=O)c3cn(C)cn3)ccc2O[C@H]1CN(C)CC1CCCCC1,inactive
14,O=C(C[C@@H]1C[C@H]2c3cc(NC(=O)c4cccnc4)ccc3O[C@H]2[C@H](CO)O1)NCc1cc(F)ccc1F,inactive
15,COc1ccc(S(=O)(=O)Nc2ccc3c(c2)C(=O)N([C@@H](C)CO)C[C@H](C)[C@@H](CN(C)C(=O)Nc2c(C)noc2C)OCCCC[C@H](C)O3)cc1,inactive
16,C[C@H](CO)N1C[C@H](C)[C@H](CN(C)C(=O)Nc2cccc3ccccc23)Oc2ncc(C#Cc3ccccc3)cc2C1=O,inactive
17,CN(C=O)CP(=O)(O)CN1CCCCC1,inactive
18,C[C@H]1CN([C@@H](C)CO)C(=O)c2cc(C#Cc3ccccc3F)cnc2O[C@@H]1CN(C)S(=O)(=O)c1ccccc1,inactive
19,Cc1ccc2c(Br)cc(Br)c(OC(=O)c3ccccc3)c2n1,active
20,C[C@@H]1CCCCO[C@@H](CN(C)Cc2ccc(C(F)(F)F)cc2)[C@@H](C)CN([C@@H](C)CO)C(=O)c2cc(NS(=O)(=O)c3cn(C)cn3)ccc2O1,inactive

row,Structure (SMILES),cytotoxicity call
1,COCC(=O)Nc1ccc2c(c1)C(=O)N(C)C[C@@H](OC)[C@H](C)CN(Cc1ccccc1F)[C@H](C)CO2,inactive
2,CC(=O)O[C@H](CC(=O)O)C[N+](C)(C)C,inactive
3,C[C@@H]1CN([C@H](C)CO)C(=O)c2cc(NS(=O)(=O)c3cn(C)cn3)ccc2O[C@@H](C)CCCCO[C@H]1CN(C)S(=O)(=O)c1ccccc1,inactive
4,COc1ccc(C=CC(=O)c2ccccc2)cc1,active
5,COc1cc(OC)cc(C(=O)OCCCNCCNCCCOC(=O)c2cc(OC)cc(OC)c2)c1,inactive
6,Cc1noc(C)c1S(=O)(=O)N(C)C[C@@H]1Oc2ccc(NS(=O)(=O)c3ccc(F)cc3)cc2C(=O)N([C@H](C)CO)C[C@@H]1C,inactive
7,C[C@@H]1CCCCO[C@H](CN(C)C(=O)NC2CCCCC2)[C@H](C)CN([C@@H](C)CO)C(=O)c2cc(NC(=O)c3ccncc3)ccc2O1,inactive
8,Cc1noc(C)c1NC(=O)Nc1ccc2c(c1)C(=O)N([C@@H](C)CO)C[C@@H](C)[C@@H](CN(C)Cc1ccc(Cl)c(Cl)c1)OCCCC[C@@H](C)O2,active
9,CC(C)NC(=O)N1Cc2cc(C(=O)NCC(F)(F)F)nc(-c3cccc(-c4cc5ccccc5o4)c3)c2[C@H]1CCO,inactive
10,C[C@@H]1CCCCO[C@H](CN(C)Cc2ccc(C(=O)Nc3ccccc3N)cc2)[C@@H](C)CN([C@H](C)CO)C(=O)c2cc(NS(=O)(=O)c3ccc(F)cc3)ccc2O1,inactive
11,COCCNC(=O)C[C@H]1CC[C@@H]2[C@H](COC[C@H](O)CN2C(=O)Nc2ccc3c(c2)OCO3)O1,inactive
12,C[C@@H]1CN([C@H](C)CO)C(=O)c2cccc(NC(=O)CCCCCC(=O)Nc3ccccc3N)c2O[C@H]1CN(C)C(=O)Nc1ccc(C(F)(F)F)cc1,inactive
13,COc1ccc2cc(-c3cc(-c4cc(Cl)cc(Cl)c4)nn3[C@@H](C)c3ccc(C(=O)NCCC(=O)O)cc3)ccc2c1,inactive
14,C[C@@H]1CN([C@@H](C)CO)C(=O)c2cc(NC(=O)Cc3ccccc3)ccc2O[C@H]1CN(C)S(C)(=O)=O,inactive
15,CC(C)NC(=O)N[C@@H]1C=C[C@H](CC(=O)NCCCN(C)C)O[C@H]1CO,inactive
16,O=C(NOC[C@H](O)CO)c1cc(Br)c(F)c(F)c1Nc1ccc(I)cc1F,inactive
17,c1ccc2c([C@@H]3CCCN3)cccc2c1,inactive
18,COc1ccc(S(=O)(=O)Nc2cccc3c2O[C@H](CN(C)S(=O)(=O)c2c(C)noc2C)[C@@H](C)CN([C@H](C)CO)C3=O)cc1,inactive
19,Nc1nc(N2CCC[C@@H](Cn3cc(CO)nn3)C2)c2c[nH]nc2n1,inactive
20,C[C@H]1CN([C@@H](C)CO)C(=O)Cc2cc(NS(=O)(=O)c3cn(C)cn3)ccc2O[C@@H]1CN(C)S(=O)(=O)c1cccs1,inactive
